From patent US20250325691A1, “HER2-GST-SN-38 COMPLEX, AND PHARMACEUTICAL COMPOSITION COMPRISING SAME FOR PREVENTING OR TREATING PROLIFERATIVE DISEASES” (priority 2022, published 2025) come the findings set out here.

The test system of one data set is MKN45 tumor. The data set can be described thus: In vivo anticancer efficacy in mouse model transplanted with MKN45. The note with it: 3, 6, 12 mg/kg IV, compared to PBS-administered group. As to the method: To confirm the anticancer effect of the KMD111 against target tumor cells, tests were performed in an in vivo environment using a mouse animal model transplanted with a human gastric cancer cell line MKN45.
(§1) Specifically, for the anticancer efficacy test, 6-week-old NIG mice (NOD/SCID, GH Bio Co., Ltd.) were purchased and bred in an environment of free access to feed and water, acclimated for more than 10 days, and then transplanted with tumor cells. As the tumor cells, HER2-positive gastric cancer MKN45 cells were subcutaneously administered at a dose of 5×10^6 cells/100 μL onto a fixed site on the left flank. After 1 week, a tumor was measured until the start of test substance administration, and individuals having tumors reached a size of about 150 mm^3 were selected and randomly distributed to each test group. Then, administration began.
The test group was divided into a PBS-administered control group and KMD111-administered groups at 3 mg/kg, 6 mg/kg, and 12 mg/kg based on SN-38, having three mice per group. […] Then, the tumor size and body weight were measured from Day 11 after the cancer cell transplantation (Day 0) to the end date (for 32 days). The tumor size, relative tumor volume (RTV), and tumor growth inhibition % (TGI %) were calculated according to the following equations, by measuring a long axis length and a short axis length of the tumor.

A short description of data set [1]: Body weight and clinical symptoms in MKN45-transplanted mice. The data set is classed as in vivo, mouse. The following applies: 3, 6, 12 mg/kg IV. On the procedure:
as §1
The test group was divided into a PBS-administered control group and KMD111-administered groups at 3 mg/kg, 6 mg/kg, and 12 mg/kg based on SN-38, having three mice per group. Intravenous injection (IV) was performed once every three days for 21 days, a total of eight times. Then, the tumor size and body weight were measured from Day 11 after the cancer cell transplantation (Day 0) to the end date (for 32 days). The tumor size, relative tumor volume (RTV), and tumor growth inhibition % (TGI %) were calculated according to the following equations, by measuring a long axis length and a short axis length of the tumor. […]

B1: KMD111 (conjugate)
chain: MAEKPKLHYFNARGRMESTRWLLAAAGVEFEEKFIKSAEDLDKLRNDGYLMFQQVPMVEIDGMKLVQTRAILNYIASKYNLYGKDIKERALIDMYIEGIADLGEMILLLPVCPPEEKDAKLALIKEKIKNRYFPAFEKVLKSHGQDYLVGNKLSRADIHLVELLYYVEELDSSLISSFPLLKALKTRISNLPTVKKFLQPGSPRKPPMDEKSLEEARKIFRFSGGGSGGGSGGGSGGGSGGGSGGGVDNKFNKEMRNAYWEIALLPNLNNQQKRAFIRSLYDDPSQSANLLAEAKKLNDAQAPK
For the molecule B1, in the data set on MKN45 tumor, the tumor size entry is recorded as “significant reduction in tumor size in a concentration-dependent manner”. Besides, in data set [1], the body weight result was “weight loss was observed” and the clinical symptoms entry was “no special clinical symptoms were observed”.
